± gives the standard deviation of the averaged measurements. In all, about 33,000 sequences were measured (“E-score (dimensionless, -0.5 to 0.5)”: median about -0.046, highest 2% from about 0.36 on). The list shows a part of the results.
These sequences were tested on T1, SpTbr T-box DNA-binding domain (GST fusion) (assay: PBM E-score of 8-mer (E-score (dimensionless, -0.5 to 0.5)); Tbr is Tbrain of the sea star Patiria miniata (Pm) or the sea urchin Strongylocentrotus purpuratus (Sp); higher = stronger binding preference; most listed sequences are background and not binding sites). Settings: the construct has about 5 more residues each side.
T1 sequence: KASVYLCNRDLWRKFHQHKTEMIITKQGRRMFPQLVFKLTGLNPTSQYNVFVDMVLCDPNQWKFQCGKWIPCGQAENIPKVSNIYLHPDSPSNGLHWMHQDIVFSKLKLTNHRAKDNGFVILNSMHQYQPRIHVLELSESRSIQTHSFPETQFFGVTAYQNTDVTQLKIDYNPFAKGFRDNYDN
Method in brief: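 Expression of GST-fused Tbr T-box DNA-binding domains, each holding the full T-box plus roughly five flanking residues, was carried out in BL21 E. coli at 20 °C, with purification by glutathione affinity chromatography. Universal Agilent arrays made double-stranded by primer extension were incubated with the protein at 200 nM in PBS (pH 7.5), then scanned and quantified. All ungapped 8-mers were scored from probe intensities, and each received an enrichment E-score from the Universal PBM Analysis Suite, averaged over duplicate arrays.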

Sequence	PBM E-score of 8-mer
CGATGTAG	-0.15 ± 0.047
AACAAATT	0.0858 ± 0.044
CTAACGGA	0.0446 ± 0.047
GGAACATA	-0.155 ± 0.12
AGAAATAC	-0.0925 ± 0.0089
AGGATACG	0.173 ± 0.038
ATTTTACG	-0.107 ± 0.06
CGAATGAG	-0.019 ± 0.0085
ACTGACAT	0.0849 ± 0.0046
CCTCTAAC	-0.133 ± 0.015
GGCTAAAA	-0.216 ± 0.033
AGACGAGA	0.0548 ± 0.013
ATAGATCC	-0.188 ± 0.042
TAATAACA	0.0425 ± 0.098
GCCATGTA	-0.126 ± 0.062
ACGATCCA	-0.15 ± 0.031
CAGTAATC	0.115 ± 0.029
AGACAAAG	-0.0785 ± 0.006
AACTTTAT	-0.0448 ± 0.0037
CCACTCCG	-0.0945 ± 0.094
GTATTGGA	-0.221 ± 0.029
AAGGTTGG	-0.101 ± 0.012
GATTGAGA	-0.182 ± 0.03
CTTAGTCA	-0.135 ± 0.054
AAGCTACG	-0.151 ± 0.027

Sequence	PBM E-score of 8-mer
AACGATAC	0.0271 ± 0.019
GCATCGCA	0.0447 ± 0.0047
AATTAGAT	-0.19265 ± 2.1e-05
GCCGAAAC	-0.239 ± 0.063
GATAGTCC	-0.134 ± 0.004
GCAATGCC	-0.174 ± 0.032
CCACGTAA	-0.148 ± 0.027
ACCGGATC	-0.144 ± 0.0083
ATATTCAA	-0.0662 ± 0.045
GGACAAGA	-0.246 ± 0.059
CCTAAGAA	-0.0589 ± 0.034
GTCCCCCA	0.0463 ± 0.043
GCGTAGCA	0.147 ± 0.037
TAACCCTA	-0.15553 ± 2.1e-05
ACCGCCGT	-0.133 ± 0.016
TAGTTTAA	-0.034 ± 0.11
CATGCATG	-0.142 ± 0.15
AGTGGCCA	0.032 ± 0.031
AACTCATT	-0.0847 ± 0.077
CTAAGTAG	-0.19 ± 0.023
AGTACCGG	-0.341 ± 0.03
AGAATACC	-0.165 ± 0.0093
GACCGGGC	-0.0563 ± 0.018
CGAGACTC	0.11 ± 0.024
GAGGTCGC	0.185 ± 0.091

Sequence	PBM E-score of 8-mer
AATTACCA	0.0766 ± 0.05
GCCCATAA	-0.218 ± 0.0094
CGCTTACA	0.172 ± 0.0088
CTAACCTA	-0.0132 ± 0.03
GAATCGAC	0.1154 ± 0.0011
GAGACTGA	-0.0611 ± 0.1
CTGTAGCC	-0.0896 ± 0.072
AAGCTTCC	-0.199 ± 0.033
GGGCAGGA	-0.233 ± 0.0039
ATTATGTC	-0.17 ± 0.043
GCTCACCA	0.027 ± 0.076
TGTAGCAA	-0.154 ± 0.078
GCTCCCCA	-0.0846 ± 0.0095
CTTGGGCA	-0.0091 ± 0.04
ACCCTGCA	-0.158 ± 0.014
CAACATGG	-0.0268 ± 0.034
ATGGCACG	0.14 ± 0.0034
AACGATTA	-0.0383 ± 0.062
ATCGGCGA	0.00619 ± 0.065
ATACGTAT	0.0502 ± 0.015
ATAGATTC	-0.161 ± 0.021
GGGACGTA	-0.139 ± 0.0082
AAAAGTGT	0.39 ± 0.016
ATCGAGAC	0.0132 ± 0.042
AGCCATAT	-0.0579 ± 0.034

Sequence	PBM E-score of 8-mer
ATCGTGCA	-0.00957 ± 0.023
CAGGTTCA	0.0643 ± 0.0016
CTGGACTA	-0.312 ± 0.018
CCAAGGAG	-0.20736 ± 4.2e-05
CGTGTGAA	0.4643 ± 0.0031
GCGATCTA	0.0784 ± 0.078
CCCTATAA	-0.312 ± 0.036
ACGTACTC	0.0663 ± 0.12
TCCATAAA	-0.379 ± 0.012
CGATCCTC	0.0602 ± 0.054
CTCTGGTC	-0.209 ± 0.0028
AAGGCAGA	-0.288 ± 0.024
GTCTCCAC	-0.103 ± 0.13
GATCCAGA	0.0327 ± 0.026
CAGCGATA	-0.0175 ± 0.042
AGATAATC	-0.0593 ± 0.049
AATGGTTA	-0.0209 ± 0.046
CCACGCCG	-0.016 ± 0.0063
AAGACTAT	-0.151 ± 0.061
AAGATTCA	-0.128 ± 0.011
GACACAGA	0.151 ± 0.031
CAGCCTAA	0.0988 ± 0.034
AAGGGACT	-0.0603 ± 0.01
CTCCTCGA	0.00467 ± 0.054
ACGGACAC	0.139 ± 0.027

Sequence	PBM E-score of 8-mer
CAACACGG	0.0142 ± 0.003
CTTCGCGC	0.407 ± 0.032
CCAACTAC	-0.00223 ± 0.0022
CCGCTCAG	-0.1 ± 0.047
CCATCGAG	0.0777 ± 0.035
TATTAATA	-0.165 ± 0.15
CAACATAC	0.125 ± 0.05
GAGTGCGA	0.411 ± 0.021
CTTAAGCC	-0.267 ± 0.0081
ACTTCACA	0.357 ± 0.02
CCCAACGC	0.0768 ± 0.033
ACAAGAAT	-0.0345 ± 0.0061
CAGAGCAG	-0.246 ± 0.033
ACGGCCCG	-0.114 ± 0.027
AATTGTAC	-0.0804 ± 0.06
ACTCTCTC	0.0136 ± 0.068
ATGCGTTG	0.0618 ± 0.059
AGTATACA	-0.0524 ± 0.029
ACTGTTTG	0.0503 ± 0.058
GACTTAAA	-0.0423 ± 0.012
CTGGGAAC	-0.102 ± 0.011
ACTTTGGA	-0.195 ± 0.0099
GGTTTAAC	0.0641 ± 0.023
GCATCCAC	-0.126 ± 0.016
TACAACAA	-0.0816 ± 0.021

Sequence	PBM E-score of 8-mer
CGCTGAGA	0.00572 ± 0.047
TGCGTACA	-0.139 ± 0.0032
ACTGTCCG	-0.213 ± 0.048
CTGTGGTA	-0.0602 ± 0.031
AACCTTAC	0.0738 ± 0.012
GCCAGAAA	-0.0922 ± 0.036
ACACTTCT	0.383 ± 0.035
AGGGCGGC	-0.186 ± 0.037
ATTGATAG	0.0108 ± 0.069
CCATATAC	-0.0681 ± 0.00081
CAGCAGTC	-0.0478 ± 0.033
ATATAACA	0.235 ± 0.057
CTATGAAA	-0.276 ± 0.074
GACACCTA	0.4778 ± 0.0018
GTTCATAA	-0.15 ± 0.039
GTCTGTTA	0.129 ± 0.015
AATCTACC	-0.117 ± 0.013
AGGTACTG	0.00815 ± 0.16
GGGACCAC	-0.184 ± 0.034
ATTAGACA	-0.107 ± 0.0034
ACGGAGAT	-0.151 ± 0.0021
AGCCGATG	0.0636 ± 0.0027
AAATTAAC	0.187 ± 0.029
TTTCGAAA	-0.0868 ± 0.088
CCTCGTTC	0.0141 ± 0.013

Sequence	PBM E-score of 8-mer
TATTACGA	-0.195 ± 0.13
ATATTGAT	-0.0515 ± 0.062
AATCCCAA	-0.249 ± 0.012
ATCAAACA	0.0199 ± 0.048
CACACCTA	0.4806 ± 0.0011
CGGGGCCA	-0.213 ± 0.092
ACTGGCAT	0.0223 ± 0.048
CAATTATG	-0.0617 ± 0.022
ACGCATAT	0.118 ± 0.066
TGTAGACA	0.118 ± 0.045
CATGATAA	-0.0381 ± 0.086
CGGCTCAG	-0.234 ± 0.056
CTGTTCTA	-0.147 ± 0.09
ACGCATAG	0.11 ± 0.043
CTCGGAAC	-0.249 ± 0.021
ATCGTGTA	-0.115 ± 0.094
ACGCATCT	0.0732 ± 0.04
GCATGTCC	-0.0875 ± 0.095
CAGTCGCA	0.125 ± 0.008
ACCGAATC	-0.0887 ± 0.092
CTGCCACC	0.247 ± 0.002
ACAAGCGC	0.107 ± 0.044
AAGTGGTA	0.083 ± 0.018
ATTTTTGA	-0.321 ± 0.043
AGGGCTCG	-0.214 ± 0.036

Sequence	PBM E-score of 8-mer
AAGAAATG	-0.121 ± 0.0069
CCTCACCA	0.197 ± 0.025
ACCGAGGG	-0.00648 ± 0.08
CCCGGGTC	0.0628 ± 0.11
AGCGCGGC	0.107 ± 0.057
CGGGTAAA	-0.0638 ± 0.0065
CTACTCTA	-0.157 ± 0.073
CGATTAAA	-0.0163 ± 0.022
GATCTGAC	0.0523 ± 0.0091
ATTTGGTA	-0.247 ± 0.089
AGCGTTCC	-0.18 ± 0.023
GATTAATC	-0.199 ± 0.051
CTATTGAG	0.0789 ± 0.0069
CATCCTCG	-0.0211 ± 0.019
ATATTATG	-0.033 ± 0.014
GTCGCTAA	0.264 ± 0.016
ATATGCAA	-0.118 ± 0.0049
CTGGTCCC	-0.198 ± 0.087
CCAACGAG	-0.106 ± 0.031
AACTATTA	-0.038 ± 0.054
ACTTAATG	-0.1 ± 0.055
AGGCCGTG	0.0787 ± 0.042
AAGTAATT	-0.161 ± 0.074
ATTATTTC	0.0521 ± 0.066
CCTCCCAG	0.0604 ± 0.011

Sequence	PBM E-score of 8-mer
CACAACGC	0.126 ± 0.03
GAATGCGA	0.0408 ± 0.00057
AGTAGCTA	-0.0118 ± 0.026
CTATCCAG	-0.244 ± 0.046
AGCATACA	0.1 ± 0.023
GTTTCGGA	-0.175 ± 0.034
GGTAGCAC	0.343 ± 0.022
CGGTGGAG	-0.07 ± 0.051
CTCAAGCC	-0.0843 ± 0.083
GAGAGAGC	0.034 ± 0.00057
CGGCCGAA	-0.16 ± 0.027
AGCCTTAT	-0.0413 ± 0.025
GGGATCAA	-0.0837 ± 0.014
GACGGACA	-0.0314 ± 0.026
CGCCATGA	0.0197 ± 0.041
TACTGTAA	-0.0785 ± 0.0084
ATTGTCTC	-0.0507 ± 0.043
TGAAACCA	-0.0205 ± 0.016
AGTAGGCG	0.0676 ± 0.025
